Screen size: about 420,000 compounds; about 64,000 (15%) were called active. Inconclusive means that the source gave no clear call. Such entries were picked first, then a sample of the others. The call rests on the fitted dose curve; in most records, active means well fitted inhibition curve with a large enough effect; inconclusive means small, poorly fitted or top-dose-only effect; inactive means flat fitted curve, though single readings scatter. No potency is given beside an inconclusive call; the fits are too rough.
Test: qHTS for Inhibitors of human tyrosyl-DNA phosphodiesterase 1 (TDP1): qHTS in cells in absence of CPT; further: nearly all actives have a fitted effect of over 55% in size
Conditions: DT40 Tdp1-/- hTDP1 cells, no CPT, ATP luminescence, 48 h; activity change, negative = growth inhibition: at 46.2 µM (top of the series)
In short: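 Luminescent ATP content (CellTiter-Glo) served as the growth readout. Knockout chicken DT40 cells expressing human TDP1 were exposed to compounds without camptothecin for a minimum 48 hr at 37 °C.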
On the % scale 0 is the no-effect control and ±100 the full control effect; potency means the concentration at half of the fitted maximal effect; tags describe the fitted curve by direction and shape.

SMILES | Potency | activity change, negative = growth inhibition
CS(=O)(=O)N(Cc1ccc(Cl)cc1)c1ccc(C(=O)N2CCN(c3ccccc3)CC2)cc1 | inconclusive [inhibitor, single point] | –
O=C([C@H]1O[C@@H](n2ccc(=O)[nH]c2=O)[C@H](O)[C@@H]1O)N1CCSC1 | – | inactive: 17.8%
O=C(NC(=S)Nc1cccc2cnccc12)c1ccccc1 | inconclusive [inhibitor, partial curve] | –
COc1ccccc1C1C(C(=O)c2ccc(C)o2)=C(O)C(=O)N1c1cc(C)on1 (stereo unspecified) | inconclusive [inhibitor, single point] | –
CC(C)CC1C(C#N)=C(N)Oc2n[nH]c(-c3cccs3)c21 (stereo unspecified) | – | inactive: -23.7%
Cc1cc[n+](CCc2ccccc2)cc1C | inconclusive [inhibitor, partial curve] | –
Cc1nn(-c2ccccc2)c2sc(C(=O)OC3CCOC3=O)cc12 (stereo unspecified) | – | inactive: -17.3%
CSCC[C@@H](N)C(=O)O | – | inactive: -11.9%
Cc1ccc(CNC(=O)c2cc3c(s2)-c2c(C)cccc2OC3)cc1 | inconclusive [inhibitor, single point] | –
COc1ccc(OCCN2C(=O)NC3(CCc4ccccc4C3)C2=O)cc1 (stereo unspecified) | – | inactive: -21.3%
CC(C(=O)N1CCCc2ccccc21)N1CCN(S(=O)(=O)c2ccccc2F)CC1 (stereo unspecified) | inconclusive [inhibitor, single point] | –
CCOC(=O)c1c(NC(C)=O)c2c3c(sc2n1Cc1nc(-c2ccccc2Cl)oc1C)CCCC3 | inconclusive [inhibitor, single point] | –
Cc1ccc(/C=N/NC(=O)c2cc(C)oc2C)cc1 | active: 16.4 µM | –
COc1cc(C(=O)OCC(=O)NCc2ccc(F)cc2)cc(NC(=O)c2cccs2)c1OC | inconclusive [inhibitor, partial curve] | –
N#C/C(=C1/CCCCCN1)c1nnc2n1CCCCC2 | – | inactive: -7.56%
CC1CCCN(CCOc2ccc(Br)cc2)C1 (stereo unspecified) | – | inactive: -20.4%
CCN(CC)c1ccc(NC(=O)COC(=O)Cc2ccsc2)cc1 | inconclusive [inhibitor, single point] | –
CCOC(=O)N1CCN(c2ccc(C(=O)CC)cc2F)CC1 | inconclusive [inhibitor, single point] | –
O=C(CC1SC(N2CCOCC2)=NC1=O)Nc1ccc(Cl)c(C(F)(F)F)c1 (stereo unspecified) | inconclusive [inhibitor, single point] | –
CN(C)CCCNc1cc(C(C)(C)C)nc2c(-c3ccccc3)cnn12 | active: 16.4 µM | –
Cc1cc(C)cc(NC(=O)N2CCN(c3cc(-c4noc(C)n4)ccc3C)CC2)c1 | inconclusive [inhibitor, single point] | –

— PubChem BioAssay AID686978 (National Center for Advancing Translational Sciences (NCATS), 2013)
